Experimental data: the supplement of paper PMC9151546
Repeats are few or missing, and single values can be far off.

Assays:
[1] = system: CHO-K1; experiment: relative survival (nuclei to bead ratio vs DMSO control) (% of vehicle control); higher = more surviving cells
Experimental: (§1)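 Flow-cytometric in vitro micronucleus assay (Litron MicroFlow) in CHO-K1 cells in 96-well plates, 19 concentrations (4.5-200 µM, n=1 per concentration). Without S9, cells were exposed for 24 h and sampled at 48 h. With Aroclor 1254-induced rat liver S9, cells were exposed for 3-4 h and sampled at 27-28 h. Read-outs are %MN and %hypodiploid nuclei relative to nucleated events, and relative survival as the nuclei-to-bead ratio versus the 1% DMSO vehicle control (x100).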

[2] = system: CHO-K1; experiment: hypodiploid nuclei frequency (% of nucleated events); higher = more hypodiploid events (aneugenic)
Experimental: as §1

[3] = system: CHO-K1; experiment: micronucleus frequency (% of nucleated events); higher = more micronuclei (genotoxic)
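Wherever hypodiploid nuclei frequency (% of nucleated events) is given: hypodiploid nuclei gated on a flow cytometer with 488 nm excitation after SYTOX Green staining, cultures at 37 °C, positive controls vinblastine without S9 and cyclophosphamide with S9.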
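Wherever micronucleus frequency (% of nucleated events) is given: cells lysed with nuclei stained by SYTOX Green, then micronucleus-gated events counted against nucleated events by flow cytometry with 488 nm excitation.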
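Wherever relative survival (nuclei to bead ratio vs DMSO control) is given: Lysed-cell nuclei stained with SYTOX Green and counted against counting beads by flow cytometry at 488 nm excitation, with vinblastine (no S9) and cyclophosphamide (plus S9) as positive controls.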

CCNc1ccccc1 [N-Ethylaniline]
Details | hypodiploid nuclei frequency, [2] [%] | micronucleus frequency, [3] [%] | relative survival, [1]
concentration: 4.5 (µM), S9 metabolic activation: with S9, exposure time: 3-4 hours | 0.28 | 1.16 | 94
concentration: 4.5 (µM), S9 metabolic activation: without S9, exposure time: 24 hours | 0.5 | 1.5 | 108
concentration: 5.63 (µM), S9 metabolic activation: with S9, exposure time: 3-4 hours | 0.26 | 0.68 | 96.8
concentration: 5.63 (µM), S9 metabolic activation: without S9, exposure time: 24 hours | 0.32 | 1.6 | 111
concentration: 7.04 (µM), S9 metabolic activation: with S9, exposure time: 3-4 hours | 0.4 | 2.06 | 104
concentration: 7.04 (µM), S9 metabolic activation: without S9, exposure time: 24 hours | 0.32 | 1.36 | 101
concentration: 8.8 (µM), S9 metabolic activation: with S9, exposure time: 3-4 hours | 0.24 | 1.5 | 98.4
concentration: 8.8 (µM), S9 metabolic activation: without S9, exposure time: 24 hours | 0.36 | 1.38 | 113
concentration: 11 (µM), S9 metabolic activation: with S9, exposure time: 3-4 hours | 0.3 | 1.72 | 91.7
concentration: 11 (µM), S9 metabolic activation: without S9, exposure time: 24 hours | 0.42 | 1.26 | 117
concentration: 13.7 (µM), S9 metabolic activation: with S9, exposure time: 3-4 hours | 0.28 | 1.86 | 114
concentration: 13.7 (µM), S9 metabolic activation: without S9, exposure time: 24 hours | 0.42 | 1.84 | 106
concentration: 17.2 (µM), S9 metabolic activation: with S9, exposure time: 3-4 hours | 0.28 | 1.76 | 93
concentration: 17.2 (µM), S9 metabolic activation: without S9, exposure time: 24 hours | 0.3 | 1.72 | 97.5
concentration: 21.5 (µM), S9 metabolic activation: with S9, exposure time: 3-4 hours | 0.34 | 2.26 | 103
concentration: 21.5 (µM), S9 metabolic activation: without S9, exposure time: 24 hours | 0.64 | 1.54 | 91.7
concentration: 26.8 (µM), S9 metabolic activation: with S9, exposure time: 3-4 hours | 0.18 | 0.74 | 74.8
concentration: 26.8 (µM), S9 metabolic activation: without S9, exposure time: 24 hours | 0.66 | 1.14 | 90.2
concentration: 33.6 (µM), S9 metabolic activation: with S9, exposure time: 3-4 hours | 0.06 | 0.9 | 79.2
concentration: 33.6 (µM), S9 metabolic activation: without S9, exposure time: 24 hours | 0.56 | 1.24 | 88.3
concentration: 41.9 (µM), S9 metabolic activation: with S9, exposure time: 3-4 hours | 0.14 | 1.02 | 85.1
concentration: 41.9 (µM), S9 metabolic activation: without S9, exposure time: 24 hours | 0.76 | 2.3 | 99.8
concentration: 52.4 (µM), S9 metabolic activation: with S9, exposure time: 3-4 hours | 0.2 | 1.3 | 96.3
concentration: 52.4 (µM), S9 metabolic activation: without S9, exposure time: 24 hours | 0.86 | 1.5 | 95.1
concentration: 65.5 (µM), S9 metabolic activation: with S9, exposure time: 3-4 hours | 0.34 | 1.98 | 79.8
concentration: 65.5 (µM), S9 metabolic activation: without S9, exposure time: 24 hours | 0.78 | 2 | 88.6
concentration: 81.9 (µM), S9 metabolic activation: with S9, exposure time: 3-4 hours | 0.12 | 1.72 | 84.7
concentration: 81.9 (µM), S9 metabolic activation: without S9, exposure time: 24 hours | 0.68 | 2.06 | 80.2
concentration: 102 (µM), S9 metabolic activation: with S9, exposure time: 3-4 hours | 0.34 | 1.6 | 92.5
concentration: 102 (µM), S9 metabolic activation: without S9, exposure time: 24 hours | 0.76 | 2.8 | 89.2
concentration: 128 (µM), S9 metabolic activation: with S9, exposure time: 3-4 hours | 0.2 | 1.74 | 93.4
concentration: 128 (µM), S9 metabolic activation: without S9, exposure time: 24 hours | 1.04 | 1.94 | 84.3
concentration: 160 (µM), S9 metabolic activation: with S9, exposure time: 3-4 hours | 0.34 | 2.06 | 81.3
concentration: 160 (µM), S9 metabolic activation: without S9, exposure time: 24 hours | 1.04 | 3.7 | 96.1
concentration: 200 (µM), S9 metabolic activation: with S9, exposure time: 3-4 hours | 0.22 | 2.6 | 103
concentration: 200 (µM), S9 metabolic activation: without S9, exposure time: 24 hours | 1.16 | 4.26 | 104
